Results taken from publication PMC4336329 (PLoS ONE, 2015).
Screen size: about 310,000 compounds; about 14,000 (4.5%) showed an effect of 50% or more. Effects have a minus sign here. Some of the results follow.

Each compound was assayed against human ether-à-go-go-related gene (hERG) potassium channel (human, UniProt Q12809) (assay: primary screen, population patch clamp on CHO cells stably expressing hERG).
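Further: peak tail current of the secondary pulse compared with the same well before compound.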

Chain of human ether-à-go-go-related gene (hERG) potassium channel (Q12809 whole entry, looked up): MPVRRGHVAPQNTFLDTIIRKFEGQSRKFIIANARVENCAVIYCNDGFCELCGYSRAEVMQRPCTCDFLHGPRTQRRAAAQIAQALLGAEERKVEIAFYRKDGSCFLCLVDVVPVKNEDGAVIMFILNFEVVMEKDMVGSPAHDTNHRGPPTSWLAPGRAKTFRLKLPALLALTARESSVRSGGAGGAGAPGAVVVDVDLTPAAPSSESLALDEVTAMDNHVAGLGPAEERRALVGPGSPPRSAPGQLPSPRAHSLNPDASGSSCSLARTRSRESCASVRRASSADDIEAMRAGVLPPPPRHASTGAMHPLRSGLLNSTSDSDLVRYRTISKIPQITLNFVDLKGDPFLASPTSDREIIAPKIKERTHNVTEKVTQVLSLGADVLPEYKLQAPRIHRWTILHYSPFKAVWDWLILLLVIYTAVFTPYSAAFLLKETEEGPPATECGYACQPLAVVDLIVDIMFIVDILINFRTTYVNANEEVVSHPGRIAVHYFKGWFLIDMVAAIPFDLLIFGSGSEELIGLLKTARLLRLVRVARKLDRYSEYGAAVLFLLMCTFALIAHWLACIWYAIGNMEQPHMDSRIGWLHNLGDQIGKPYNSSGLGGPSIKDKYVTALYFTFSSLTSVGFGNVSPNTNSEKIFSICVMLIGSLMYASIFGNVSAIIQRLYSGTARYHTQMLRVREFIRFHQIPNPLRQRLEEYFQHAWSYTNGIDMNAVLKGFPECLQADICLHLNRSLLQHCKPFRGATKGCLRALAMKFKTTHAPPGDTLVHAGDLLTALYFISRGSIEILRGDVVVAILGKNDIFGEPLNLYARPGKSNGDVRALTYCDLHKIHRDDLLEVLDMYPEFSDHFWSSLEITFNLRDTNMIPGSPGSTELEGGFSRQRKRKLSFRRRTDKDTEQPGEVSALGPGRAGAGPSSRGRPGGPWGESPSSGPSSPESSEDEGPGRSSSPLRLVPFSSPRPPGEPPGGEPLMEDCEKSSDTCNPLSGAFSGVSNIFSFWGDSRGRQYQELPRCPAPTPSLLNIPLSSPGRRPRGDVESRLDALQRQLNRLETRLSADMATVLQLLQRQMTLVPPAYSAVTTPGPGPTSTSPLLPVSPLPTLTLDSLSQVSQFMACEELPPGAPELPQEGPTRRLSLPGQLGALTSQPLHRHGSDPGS

Compound	hERG current change (%, negative = inhibition) at 10uM
O=C(NCc1nnc(SCC(=O)N2CCOCC2)o1)c1ccccc1F	24.2%
CN(/C=C/C(=O)C(F)(F)C(F)(F)F)Cc1ccccc1	-7.46%
O=C(CCCn1c(SCC(=O)NCCc2ccccc2)nc2ccccc2c1=O)NCC1CCCO1 (centres unmarked)	-22.8%
Cc1ccc(NCC(=O)Nc2cccc(S(=O)(=O)N(C)C)c2)cc1S(=O)(=O)N1CCCCCC1	-10.3%
CCOC(=O)c1nnn(-c2nc(OC)nc(N(C)C)n2)c1-c1ccccc1	-0.201%
O=C(C[n+]1cc(-c2ccc(F)cc2)n2c1CCC2)N1c2ccccc2Sc2ccccc21.[Cl-]	6.17%
CCOC(=O)c1c(NC(=O)COC(=O)c2ccncc2)sc(C)c1C	11.1%
COc1ccc2[nH]cc(CCNC(C)=O)c2c1	2.25%
N#Cc1ccccc1Sc1ccccc1C(=O)OCC(=O)N1CCN(C(=O)c2ccco2)CC1	-36.3%
Cc1cccc(OCC(=O)Nc2cc(S(=O)(=O)N3CCCCC3)ccc2N2CCN(C)CC2)c1	-63%
CCCCCCn1c(=O)c(C(=O)Nc2ncccc2O)c(O)c2ccccc21	9.65%
Cc1cc(C)cc(N2C(=O)CN(Cc3ccccc3)C2=S)c1	-2.18%
O=C(O)CSc1nnc(NC(=O)c2ccc3c(c2)OCO3)s1	-4.47%
COc1ccccc1OCCN(C#N)c1nc(N(C)C)nc(N(C)C)n1	6.09%
O=c1cc(CS(=O)(=O)c2ccccc2)nc(-c2ccncc2)[nH]1	9.86%
CCOC(=O)c1sc(/N=C/c2c(O)n(-c3cccc(C)c3)c(=O)[nH]c2=O)c(C#N)c1C	5.2%
CCOC(=O)CSC1=Nc2ccccc2C2=NC(CC(=O)NCc3ccccc3)C(=O)N12 (centres unmarked)	-34.6%
COCCCNC(=O)Cn1c(=O)n(Cc2ccc(F)cc2)c(=O)c2sccc21	5.58%
CCc1ccccc1NC(=O)C1CCCN1C(=O)Nc1ccc(C)cc1 (centres unmarked)	2.15%

Compound	hERG current change (%, negative = inhibition) at 10uM
CCOc1ccc(Nc2cc(C)nc3nc(C)nn23)cc1	-33.2%
Cc1cc(C(=O)COC(=O)c2ccccc2O)c(C)n1CC1CCCO1 (centres unmarked)	-42%
Cc1ccc(S(=O)(=O)N2CCN(C(=O)C(Cc3ccccc3)NC(=O)c3ccccc3)CC2)cc1 (centres unmarked)	16.6%
O=C(Cn1c(CO)nc2ccccc21)NCCc1ccccc1	-3.08%
S=C(N/N=C/c1ccccc1Cl)Nc1cccc(Cl)c1Cl	12.9%
Cc1ccc(/C=C(\NC(=O)c2ccc(C)cc2)c2nc(=S)[nH][nH]2)cc1	5.82%
Cc1cccc(OCc2nnc(SCC(=O)N3c4ccccc4CC3C)n2C)c1C (centres unmarked)	-8.59%
O=S(=O)(c1ccc2nc(COc3ccc(Cl)cc3Cl)[nH]c2c1)N1CCOCC1	-19.2%
C=CCNC(=S)NNC(=O)c1ccc(Br)cc1	9.89%
COc1ccc(CN(C(=O)c2ccco2)C2CC(C)N(C)CC2C)cc1 (centres unmarked)	-53.4%
CC(CCc1ccco1)NC(=O)c1cc2c(-c3ccccc3F)nn(C)c2s1 (centres unmarked)	-5.86%
O=C(NCc1n[nH]c(=S)n1-c1cccc(C(F)(F)F)c1)c1ccc(S(=O)(=O)N2CCCC2)cc1	15.1%
Cc1cccc(CCNC(=O)C2CCN(S(=O)(=O)c3ccccc3)CC2)c1	-25.4%
CCn1c(COc2ccc(OC)cc2)nnc1SCc1nc2ccccc2c(=O)[nH]1	25.3%
COc1ccc(C(=O)NC2=NCCS2)c(OC)c1	10.6%
CC/C(=C/c1sc2ccccc2[n+]1CC)SC.COS(=O)(=O)[O-]	0.104%
O=C(CN1C(=O)NC2(CCCCCCC2)C1=O)NCc1ccccc1Cl	-4.32%
Cc1ccc(NC(=O)CSc2ccc3nnc(-c4ccccn4)n3n2)cc1	-44.2%
Cc1ccccc1OCC(O)Cn1c(Br)nc2c1c(=O)[nH]c(=O)n2C (centres unmarked)	-7.67%

Compound	hERG current change (%, negative = inhibition) at 10uM
O=C(Oc1ccc(/C=N/NC(=O)c2ccccn2)cc1)c1cccc(Br)c1	11.4%
Cn1cc(NC(=O)CCl)cn1	29.7%
Cc1cccc2sc(NC(=O)CSc3cn[nH]n3)nc12	16%
O=C(NC(c1ccccc1)c1ccccc1)c1cccc(S(=O)(=O)NCc2ccccc2)c1	-5.66%
O=C(NC(=S)Nc1ccc(-c2ccc(CO)o2)cc1)c1cccs1	21%
O=C1NCCCC2c3c(cc(Br)c(O)c3Br)OC12N1CCCCC1 (centres unmarked)	-6.13%
CC(O)[C@H]1CNCCN1CCc1cccc(F)c1 (some centres unmarked)	10.6%
Cc1ccc(CCNC(=O)C2CCC(=O)N(CC3CCCCC3)C2)cc1 (centres unmarked)	8.19%
COc1ccc(C(=O)CCc2ccccc2)cc1	9.03%
CN(C)S(=O)(=O)c1cccc(-c2nnc(SCC(=O)NCCCCCC(=O)O)n2-c2ccc(F)cc2)c1	17.6%
Cn1cccc1/C=C1/C(=O)NC(=O)N(C(C)(C)C)C1=O	5.2%
CC(C)C(=O)Nc1nnc(CCc2ccccc2)s1	-1.05%
O=C(Nc1ccccc1)N1C2CCC1CC(O)(c1cccnc1)C2 (centres unmarked)	8.01%
Cc1cccn2c(=O)c(C=NCc3ccco3)c(Nc3ccc(SC(F)F)cc3)nc12	-8.4%
Cc1ccc(-n2nc3c(c2NC(=O)c2ccc(S(=O)(=O)N4CCOCC4)cc2)CSC3)c(C)c1	-2.71%
CCc1cccc(NC(=O)C2CCCN(c3cnccn3)C2)c1 (centres unmarked)	-9.21%
COc1cc(/C=N/Nc2snc(SC)c2C#N)ccc1O	-3.46%
CCCCCCCCOC(=O)C[N+](C)(C)C/C=C(/C)Cl.[Br-]	-10.9%
